Assay [1] relates to MPL-mutCALR cells (BaF3 cells stably expressing human MPL and human mutCALR). The experiment in a line: Flow cytometry binding to cell surface MPL and mutCALR (GMFI, four parameter fit). As to conditions: four parameter curve fitting. (In general: A flow cytometer gives signals particle by particle.)
The target in assay [2] is T1, recombinant MBP-mutCALR Type 1 fusion protein (Homo sapiens, UniProt P27797, DEL40-40).
T1 construct: His6 (N); purchased Cepter (cepterbiopartners.com), custom made
Kind of assay: Biacore SPR binding kinetics, Experiment 2 (parental and variant antibodies). As to conditions: Biacore 8K, 25° C., 1:1 binding model.

Assay [3] deals with Ba/F3-TPOR/mutCALR type 1 engineered cells. The experiment in a line: Cell proliferation with antibody and/or ruxolitinib, mutCALR Type 1. To be noted: log value, 72 hours, marked *; for Log IC50, Antibody + ruxolitinib (extrapolated from fitted curve): with 50 nM ruxolitinib. Format: cell-based. How it is done: To test the ability of anti-mutCALR antibodies to potentiate the therapeutic response of the JAK1/2 inhibitor ruxolitinib, Ba/F3 cells were engineered to express MPL+mutCALR Type 1 (52 bp deletion) or MPL+mutCALR Type 2 (5 bp insertion) as described above. Cells were plated at 5,000 cells per well in RPMI 1640+2% FBS, treated with 50 nM of ruxolitinib and/or anti-mutCALR antibodies. Cells were incubated for 72 hours followed by assessment of cell viability using the CellTiter-Glo Luminescent Cell Viability Assay (Promega, Madison, Wis.) and Top Count (Perkin Elmer, Boston, Mass.) or Pherastar (BMG Labtech, Ortenberg, Germany) for luminescence quantification. Ruxolitinib used at a concentration of 50 nM inhibited the level of oncogenic cell proliferation by approximately 20% (dotted line).

The target of assay [4] is T1, recombinant MBP-mutCALR Type 1 fusion protein. Kind of assay: Biacore SPR binding kinetics, Experiment 1. As to conditions: Biacore 8K, 25° C., 1:1 binding model. (In general: SPR reads the build-up and loss of mass on a sensor chip optically.)
Assay [5] deals with BaF3 cells expressing MPL/mutCALR Type 1. Kind of assay: Example 16 inhibition of cell proliferation, CellTiter-Glo 72 hours. The assay is classed as cell-based. To be noted: for inhibition of cell proliferation: 72 hours, FIG. 21B, Table 16; for IC50 for anti-mutCALR antibody mediated inhibition of cell proliferation: BaF3 cells expressing MPL/mutCALR Type 1, 72 hours, CellTiter-Glo. How it is done: The ability of the five antibodies shown here to inhibit cell proliferation was tested. Inhibition of cell proliferation was assessed using engineered BaF3 cells expressing MPL/mutCALR Type 1. Cells were plated at 5,000 cells per well in RPMI 1640+2% FBS, antibodies were added and incubated for 72 hours, followed by assessment of cell viability using the CellTiter-Glo Luminescent Cell Viability Assay (Promega, Madison, Wis.) and Top Count (Perkin Elmer, Boston, Mass.) or Pherastar (BMG Labtech, Ortenberg, Germany) for luminescence quantification. […] The data shown in FIGS. 21A and 21B were compiled from different experiments.
Background: ATP-based viability assays read luminescence as a measure of living cells.

Assay [6] concerns Ba/F3 cells transfected with MPL and mutCALR Type 1. The experiment in a line: Inhibition of cell proliferation, CellTiter-Glo 72 hours, mutCALR Type 1. Format: cell-based. To be noted: Ba/F3 engineered cells, high-throughput primary screening. The essentials: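 Ba/F3 cells expressing MPL plus mutCALR Type 1 (52 bp deletion) or Type 2 (5 bp insertion) were seeded at 5,000 cells/well in RPMI 1640 + 2% FBS with anti-mutCALR antibodies. After 72 h, viability was read by CellTiter-Glo luminescence.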

Assay [7] concerns the target T2, recombinant MBP-mutCALR Type 2 fusion protein (Homo sapiens, UniProt P27797).
T2 construct: His6 (N); purchased Cepter (cepterbiopartners.com), custom made
The experiment in a line: Biacore SPR binding kinetics, Experiment 3. How it is done:
Experiment 2: Recombinant MBP-mutCALR Type 1 fusion protein was custom made at Cepter (cepterbiopartners.com). Data for the interaction of antibodies with recombinant mutCALR protein were collected at 25° C. on a Biacore 8K instrument (Cytiva, Marlborough, Mass.), and all reagents were obtained from Cytiva unless otherwise specified. The experiments were conducted using Tris-buffered saline (pH 7.2), 0.005% Surfactant P20, 1 mM CaCl2) as running buffer. To prepare the capture surfaces, anti-human IgG (Fc) antibodies (Product #29234600) was amine-coupled onto a CM4 chip (Product #BR100534) under standard conditions using an Amine Coupling Kit (Product #BR100050). Anti-mutCALR antibodies were captured onto the chip surface by injecting over flow cell 2 only at a flow rate of 10 μL/min for 30 seconds. Typical capture levels were in the range of 15-25RU. Recombinant MBP-mutCALR Type 1 fusion protein was prepared at nominal concentrations of 0, 0.75, 2.22, 6.67, 20, and 60 nM and injected over both flow cells 1 and 2 for 150 seconds at a flow rate of 69 L/min, followed by a 230-second dissociation phase at the same flow rate. The kinetics parameters were obtained by applying 1:1 binding model to fit the data from multiple-cycle injection experiments using Biacore Insight Evaluation software.
Experiment 3: The amino acid sequence of recombinant MBP-mutCALR Type 2 fusion protein used in this Experiment 3 is:
Recombinant MBP-mutCALR Type 2 fusion protein was custom made at Cepter (cepterbiopartners.com). Data for the interaction of antibodies with recombinant MBP-mutCALR Type 2 fusion protein were collected as described in Experiment 2. The chip used was a Biacore Series S Sensor Chip CM4 with anti-huFc immobilized onto the chip surface. Recombinant MBP-mutCALR Type 2 fusion protein was prepared at nominal concentrations of 1.1, 3.3, 10, 30, and 90 nM. Typical capture levels were in the range of 16-37RU.

“Also recorded” adds a separate entry of the source. Some results are limits rather than exact numbers.

B1: 32 (antibody)
heavy: QVQLVQSGAEVKKPGATVKISCKVSGYSFTDYFIHWVQQAPGKGLAWVGLVDPEDGETIYAEKFQGRVTITADTSTDTAYMELSSLRSEDTAVYYCATPGGILTDPDAFDIWGQGTMVTVSSASTKGPSVFPLAPSSKSTSGGTAALGCLVKDYFPEPVTVSWNSGALTSGVHTFPAVLQSSGLYSLSSVVTVPSSSLGTQTYICNVNHKPSNTKVDKRV[omitted - human IgG1 Fc]
light: QSALTQPASVSGSPGQSITISCTGTSSDVGGYNYVSWYQQHPGKAPKLMIYEVSNRPSGVSNRFSGSKSGNTASLTISGLQAEDEADYYCSSYTSSSTPYVFGTGTKVTVLGQPKAAPSVTLFPPSSEELQANKATLVCLISDFYPGAVTVAWKADSSPVKAGVETTTPSKQSNNKYAASSYLSLTPEQWKSHRSYSCQVTHEGSTVEKTVAPTECS
Consider B1, for which the “MPL-mutCALR Hill Slope” value in assay [1] is 0.57. For the same molecule, in assay [2], the “ka” value worked out at 1.84e+06 M⁻¹ s⁻¹ and the “kd” value is 0.00314 s⁻¹. In assay [3], the “Log IC50, Antibody alone (extrapolated from fitted curve)” value was 0.180* μg/mL and the “Log IC50, Antibody + ruxolitinib (extrapolated from fitted curve)” value is −0.586* μg/mL. Moreover, in assay [4], the “ka” value turned out to be 1.36e+06 M⁻¹ s⁻¹ and the “kd” value turned out to be 0.00768 s⁻¹.

B2: 4 (antibody)
heavy: EVQLVQSGAEVKKPGASVKVSCKVSGYTLTELSMQWVRQAPGKGLEWMGGFDPDDGETMYAEKFQGRLTVTEDTSTDTVYMELRSLTSEDTALYFCATSPGYDFFDYWGQGTLVTVSSASTKGPSVFPLAPSSKSTSGGTAALGCLVKDYFPEPVTVSWNSGALTSGVHTFPAVLQSSGLYSLSSVVTVPSSSLGTQTYICNVNHKPSNTKVDKRV[omitted - human IgG1 Fc]
light: SYVLTQPPSVSVAPGQTARITCGGNNIGSKSVHWYQQKPGQAPVLVVYDDSDRPSGIPERFSGSNSGNTATLTINRVEAGDEADYYCQVWDSSNDLLIFGGGTKLTVLGQPKAAPSVTLFPPSSEELQANKATLVCLISDFYPGAVTVAWKADSSPVKAGVETTTPSKQSNNKYAASSYLSLTPEQWKSHRSYSCQVTHEGSTVEKTVAPTECS
With B2, in assay [5], the “inhibition of cell proliferation” value was “substantially inhibit cell proliferation; also recorded: inhibits cell proliferation” and the “IC50 for anti-mutCALR antibody mediated inhibition of cell proliferation” value was 0.10 µg/mL. Besides, in assay [4], the “ka” value stood at 1.63e+06 M⁻¹ s⁻¹ and the “kd” value amounted to 0.00704 s⁻¹. Moreover, the “IC50 inhibition of cell proliferation” value in assay [6] was found to be 0.0022 µg/mL.

B3: 162 (antibody)
heavy: QVQLVQSGAEVKKPGASVKVSCKVSGYTLTELSMQWVRQAPGKGLEWMGGFDPDDGETMYAEKFQGRLTVTEDTSTDTVYMELRSLTSEDTALYFCATSPGYDFFDYWGQGTLVTVSSASTKGPSVFPLAPSSKSTSGGTAALGCLVKDYFPEPVTVSWNSGALTSGVHTFPAVLQSSGLYSLSSVVTVPSSSLGTQTYICNVNHKPSNTKVDKRV[omitted - human IgG1 Fc with changes]
light: SYVLTQPPSVSVAPGKTARITCGGDNIGSKSVHWYQQKPGQAPVLVVYDDSDRPSGIPERFSGSNSGNTATLTISRVEAGDEADYYCQVWDSSNDLLIFGGGTKLTVLGQPKAAPSVTLFPPSSEELQANKATLVCLISDFYPGAVTVAWKADSSPVKAGVETTTPSKQSNNKYAASSYLSLTPEQWKSHRSYSCQVTHEGSTVEKTVAPTECS
Regarding B3, in assay [7], the “ka” value amounted to 607000 M⁻¹ s⁻¹ and the “kd” value worked out at 0.00682 s⁻¹.

B4: AB3: anti-mutCALR antibody including the BJ095 VH region and the BJ097 VL region from WO2019178362 fused to human constant regions (antibody)
heavy: QVQLVQSGAEVKKPGASVKVSCKASGYSFTGYYIHWVRQAPGQGLEWIGYISAYNGASSYNQKFKGRATFTVDTSISTAYMELSRLRSDDTAVYYCASSMDYWGQGTLVTVSSASTKGPSVFPLAPSSKSTSGGTAALGCLVKDYFPEPVTVSWNSGALTSGVHTFPAVLQSSGLYSLSSVVTVPSSSLGTQTYICNVNHKPSNTKVDKRV[omitted - human IgG1 Fc]
light: DVVMTQSPLSLPVTLGQPASISCKSSQSLLDSDGKTYLNWLQQRPGQSPKRLIYLVSKLDSGVPDRFSGSGSGTDFTLKISRVEAEDVGVYHCWQGTHFPYTFGQGTKLIEKRTVAAPSVFIFPPSDEQLKSGTASVVCLLNNFYPREAKVQWKVDNALQSGNSQESVTEQDSKDSTYSLSSTLTLSKADYEKHKVYACEVTHQGLSSPVTKSFNRGEC
As for B4, in assay [5], the “inhibition of cell proliferation” value is listed as “no functional activity” and the “IC50 for anti-mutCALR antibody mediated inhibition of cell proliferation” value was >60 µg/mL.

B5: AB2: anti-mutCALR antibody including VH and VL regions of antibody B3 from WO2020175689 fused to human constant regions (antibody)
heavy: QVQLQQSGAELVKPGSSVKISCKASGYTFTRNFIHWIKQQPGNGLEWIGWIFPGDGDTEYNQKFNGKATLTADKSSSTAYMQLSSLTSEDSAVYFCARGNYNYEYFDYWGQGVMVTVSSASTKGPSVFPLAPSSKSTSGGTAALGCLVKDYFPEPVTVSWNSGALTSGVHTFPAVLQSSGLYSLSSVVTVPSSSLGTQTYICNVNHKPSNTKVDKRV[omitted - human IgG1 Fc]
light: DIQMTQSPASLSASLGETVSIECLASEDIYSYLAWYQQKPGKSPQLLIFAANRLQDGVPSRFSGSGSGTQFSLKISGMQPEDEGDYFCLQGSKFPYTFGPGTKLELNRTVAAPSVFIFPPSDEQLKSGTASVVCLLNNFYPREAKVQWKVDNALQSGNSQESVTEQDSKDSTYSLSSTLTLSKADYEKHKVYACEVTHQGLSSPVTKSFNRGEC
For the molecule B5, in assay [5], the “inhibition of cell proliferation” value was “no functional activity” and the “IC50 for anti-mutCALR antibody mediated inhibition of cell proliferation” value is >60 µg/mL.

B6: 40 (antibody)
heavy: EVQLVQSGAEVKKPGASVKVSCKVSGYTLTESSMHWVRQAPGKGLEWMGLVDPEDGETIYAQKFQGRVTMTEDTSTDTAYMELSSLRSEDTAVYYCAREEWSGDGDDAFDIWGQGTMVTVSSASTKGPSVFPLAPSSKSTSGGTAALGCLVKDYFPEPVTVSWNSGALTSGVHTFPAVLQSSGLYSLSSVVTVPSSSLGTQTYICNVNHKPSNTKVDKRV[omitted - human IgG1 Fc]
light: QSVLTQPPSVSAAPGQKVTISCSGSSSNIGSYSVSWYQQLPGTAPKLLIYDNNKRPSGIPDRFSGSNSGTSATLGITGLQTGDEADYYCGTWDSSLSAWVFGGGTKLTVLGQPKAAPSVTLFPPSSEELQANKATLVCLISDFYPGAVTVAWKADSSPVKAGVETTTPSKQSNNKYAASSYLSLTPEQWKSHRSYSCQVTHEGSTVEKTVAPTECS
B6: in assay [1], the “MPL-mutCALR Hill Slope” value was 0.50. For the same molecule, in assay [2], the “ka” value was determined as 3.44e+06 M⁻¹ s⁻¹ and the “kd” value stood at 0.00121 s⁻¹. Also, the “Log IC50, Antibody + ruxolitinib (extrapolated from fitted curve)” value in assay [3] is −1.595* μg/mL. In assay [4], the “ka” value stood at 5.17e+06 M⁻¹ s⁻¹ and the “kd” value was found to be 0.00538 s⁻¹.

The values above are taken from patent US20230272055A1, “ANTI-MUTANT CALRETICULIN (CALR) ANTIBODIES AND USES THEREOF” (Incyte Corporation, priority 2021, published 2023).
